In PubChem BioAssay AID488969 (Vanderbilt High Throughput Screening Facility, 2010):
The full ranking holds about 110,000 compounds; the median of “z-score” is about -0.1, and the highest 2% start at about 2. The list shows a part of the results. Calls of active or inactive are those of the source.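 How the source made its calls: active means z-score in the third read window above 3 or below -3; inactive means the rest.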

These compounds were tested against Metabotropic glutamate receptor 8 (Rattus norvegicus) (UniProt P70579) (assay: mGluR8 Gi/Go-coupled signaling modulation – cell-based, rat, thallium flux, HTS, primary screen (AID 488969)). Conditions: HEK293 rat mGluR8, GIRK (G protein-gated inwardly rectifying potassium channel) thallium flux, FluoZin2; at 10 µM; stronger effect = higher value; submaximal glutamate (EC20) added with thallium.
Chain of UniProt P70579 (P70579 whole entry, looked up): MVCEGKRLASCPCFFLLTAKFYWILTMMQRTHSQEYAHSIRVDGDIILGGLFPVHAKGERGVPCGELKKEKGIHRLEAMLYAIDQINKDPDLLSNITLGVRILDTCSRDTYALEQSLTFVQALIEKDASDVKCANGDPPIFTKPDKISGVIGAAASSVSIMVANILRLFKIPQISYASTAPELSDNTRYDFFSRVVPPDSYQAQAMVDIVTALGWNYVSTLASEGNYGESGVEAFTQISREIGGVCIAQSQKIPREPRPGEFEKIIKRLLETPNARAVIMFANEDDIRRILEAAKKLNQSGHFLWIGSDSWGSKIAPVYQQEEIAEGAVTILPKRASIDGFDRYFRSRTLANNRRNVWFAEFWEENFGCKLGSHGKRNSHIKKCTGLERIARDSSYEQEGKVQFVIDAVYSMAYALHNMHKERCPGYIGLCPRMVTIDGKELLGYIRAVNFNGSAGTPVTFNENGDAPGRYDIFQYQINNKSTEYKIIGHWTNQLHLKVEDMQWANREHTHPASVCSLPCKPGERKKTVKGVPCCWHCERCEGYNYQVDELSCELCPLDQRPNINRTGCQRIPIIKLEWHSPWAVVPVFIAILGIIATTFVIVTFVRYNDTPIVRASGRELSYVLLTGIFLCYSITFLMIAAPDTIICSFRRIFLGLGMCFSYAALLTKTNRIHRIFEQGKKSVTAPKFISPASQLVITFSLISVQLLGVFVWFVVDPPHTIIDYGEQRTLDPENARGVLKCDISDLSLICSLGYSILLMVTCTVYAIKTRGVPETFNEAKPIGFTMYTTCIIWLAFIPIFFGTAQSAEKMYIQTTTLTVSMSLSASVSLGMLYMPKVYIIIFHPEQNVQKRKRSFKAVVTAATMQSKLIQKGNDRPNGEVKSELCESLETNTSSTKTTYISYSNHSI

SMILES	z-score
N#Cc1ccc(Nc2ccccc2)c(N)c1	-0.0201
CC(=O)N(C)c1nc(-c2ccc(Cl)cc2)cs1	-0.168
N/C(=N\OC(=O)CSc1ccccc1)c1cccc([N+](=O)[O-])c1	-0.477
COc1ccc(/C=C/C(=O)Nc2c(C)nn(C)c2C)cc1COc1ccc(Cl)cc1Br	-0.0447
O=C(CC(c1ccccc1)c1ccccc1)Nc1ncn[nH]1	0.56
O=C(NCCc1ccccc1)c1cc2sccc2n1Cc1ccccc1	-0.126
CCOC(=O)c1c(NC(=S)Nc2ccccc2C)sc2c1CCC2	0.265
COc1ccc(CCN(Cc2cccs2)S(=O)(=O)c2ccc(S(=O)(=O)N3CCCCCC3)cc2)cc1OC	0.158
O=C1c2ccccc2C(Nc2ccc(Cl)cn2)N1c1ccccn1 (stereo not given)	-2.07
COc1cc(CCC(=O)OCC(=O)Nc2ccccc2C(C)C)cc(OC)c1OC	0.11
COc1ccccc1N(CN1CCCC1=O)C(=O)c1c(F)cccc1F	-0.429
CCCN(CCC)S(=O)(=O)c1ccc(C(=O)NCc2ccc3c(c2)OCO3)cc1	0.635
O=C(Cn1[nH]c(=O)c2ccccc2c1=O)OCC(=O)N(Cc1ccccc1)Cc1ccccc1	-0.414
COc1ccc(/C=C\C(=O)Oc2cccc(/C=N/NC(=O)Cc3ccc(OC)c(OC)c3)c2)cc1	0.177
CCOc1ccc(Br)cc1S(=O)(=O)NCCN(C)C	-0.463
CCN(C(=S)Nc1ccc(Oc2ccccc2)cc1)c1ccccc1	0.235
COc1ccc(-c2cc(=O)oc3c(C)c(O)c(CN(C)C)cc23)cc1	-0.711
Cc1c(C(=O)N2CCCC2)nnn1-c1nonc1N	-0.219
O=C(C1CCN(c2nnc(-n3cccc3)s2)CC1)N1CCc2ccccc2C1	-0.67
O=C(Nc1ccc(Cl)cc1C(=O)Nc1ccc(Br)cn1)c1ccco1	-0.323
Clc1ccc(CN2CCC(Cc3ccccc3)CC2)cc1	-0.189
Cc1cccc2nc(CSc3nnnn3-c3ccccc3)cn12	-0.527

SMILES	z-score
CN(C)S(=O)(=O)c1cccc(-c2nnc(SCc3cc(Cl)cc4c3OCOC4)n2N)c1	-0.286
COc1ccc(C(=O)CCc2nc3ccccc3s2)cc1	-0.0445
CCOC(=O)CCP(=O)(O)C(O)c1ccccc1 (stereo not given)	-0.101
O=C(CN1CCOCC1)Nc1cc(Cl)ccc1Cl	-0.344
CC(C)(C)c1ccc(OCCn2ccccc2=O)cc1	1.01
Cc1nn(C(C)C(=O)N2CCOCC2)c(C)c1[N+](=O)[O-] (stereo not given)	0.00235
COc1cc(N)cc(NC(=O)c2ccncc2)c1	-0.0988
CCC12C(=O)C(CC)(C(c3ccccc3)=C1c1ccccc1)[C@@H]1C(=O)N(c3ccc(C)cc3)C(=O)C12 (stereo not given in full)	0.068
CCOCC(=O)Nc1nc2ccc(S(C)(=O)=O)cc2s1	0.208
O=C(CN1CCN(c2ccccc2)CC1)Nc1ccc(Oc2ccccc2)cc1	0.705
C/C(=N\NC(=O)Cc1csc(N2CCOCC2)n1)c1ccccc1	-0.11
COc1ccc(N(CC(=O)N2CCN(Cc3ccc4c(c3)OCO4)CC2)S(C)(=O)=O)cc1OC	-0.325
COc1ccc2nc(-c3ccc(N)cc3)[nH]c2c1	-0.0289
COc1ccc(-c2ccc3c(N)c(C(=O)c4cccc(OC)c4)sc3n2)cc1	-0.49
CCc1ccccc1NC(=O)c1ccc(-n2c(C)ccc2C)cc1	-0.16
Cc1c(NC(=O)CSc2ccc3c(c2)OCCO3)c(=O)n(-c2ccccc2)n1C	0.533
Cc1cccc(NC(=O)Nc2ccc3c(c2)N(C)C(=O)CS3)n1	-0.354
O=C(O)c1ccc(-n2c(-c3cc(-c4ccco4)[nH]n3)n[nH]c2=S)cc1	-0.029
COC(=O)c1ccc(C(=O)NC(=S)Nc2nc3c(s2)CCCC3)cc1	active: 9.51
O=C(CN(Cc1ccccc1F)S(=O)(=O)c1ccc(Cl)cc1)NCCCO	-0.76
CCOc1ccc(C2C(C(=O)NC)=C(C)Nc3nc4ccccc4n32)cc1OC (stereo not given)	0.904
O=C(COc1ncnc2scc(-c3ccc(Cl)cc3)c12)NCc1ccco1	-0.351

SMILES	z-score
COc1cc(/C=N/O)cc(Br)c1OS(=O)(=O)c1ccc(C)cc1	-0.227
Cc1ccc2cc(CN(Cc3cccs3)Cc3nnnn3CC3CCCO3)c(=O)[nH]c2c1C (stereo not given)	-0.542
COc1ccc(/C=N\NC(=O)c2sc(N)nc2C)cc1OC	0.182
CCOc1ccc(N2C(=O)CC(SC(=NC)Nc3ccc4c(c3)OCO4)C2=O)cc1 (stereo not given)	0.126
Cc1cc(C)cc(N(CC(=O)N2CCOCC2)S(=O)(=O)c2ccccc2)c1	-0.336
O=C(NCc1ccc(-c2nc3ccccc3s2)cc1)c1ccco1	-0.111
CC(C)=C1C(=O)NN(c2ccc(C)c(Cl)c2)C1=O	-0.209
COC(=O)c1ccc(CSc2nnc(Nc3ccccc3OC)s2)o1	active: 4.01
O=C(COc1cccc(C(F)(F)F)c1)NCCCN1CCCC1=O	-0.747
Cc1ccc(CN2CC(C(=O)Nc3nnc(SCc4c(Cl)cccc4Cl)s3)CC2=O)cc1 (stereo not given)	0.195
O=C(Nc1cccc(O)c1)c1cc(-c2ccco2)on1	-0.103
O=C(COc1ncnc2ccccc12)c1ccc2c(c1)OCCO2	0.493
COC(=O)Cc1ccc(NC(=O)c2ccc(Br)o2)cc1	-0.0309
O=C(Nc1cc2nn(-c3ccccc3)nc2cc1Cl)c1ccco1	0.192
COc1ccc(C=O)cc1COc1ccccc1F	-0.294
S=C(NCCN1CCOCC1)N/N=C/c1c2ccccc2cc2ccccc12	0.702
COc1ccccc1NC(=O)CN1CCC(C(=O)c2ccc(F)cc2)CC1	-1.26
CC(C)(C)NC(=O)C1Cc2ccccc2CN1C(=O)Nc1cccc(Cl)c1 (stereo not given)	-0.143
Clc1ccc(CSc2nnc([C@@H]3CCCN3)o2)cc1	0.791
COc1ccc2oc(=N)c(-c3nnc4n3CCCCC4)cc2c1	-0.809
O=C(NC1CCCCC1)C1CC=CCC1C(=O)OCC(Cl)=C(Cl)Cl (stereo not given)	-0.34
Cc1ccc(C(=O)O)cc1N1C(=O)c2cccc3cc(Br)cc(c23)C1=O	-0.601

SMILES	z-score
CCOC(=O)/C(=N\NC(=O)c1ccccc1)c1ccccc1	1.08
COC(=O)C(Nc1ccccc1Cl)(c1cc(C)c(O)c(C)c1)C(F)(F)F (stereo not given)	0.323
CCOc1ccccc1-c1cc(C(=O)N/N=C/c2ccc3c(c2)OCO3)c2ccccc2n1	-0.832
O=C(Cn1nc(Cc2cccnc2)c2ccccc2c1=O)NCc1ccc(F)cc1	0.475
COc1cc(-c2nc3cnccn3c2Nc2c(C)cccc2C)ccc1O	-0.343
CC(=NCCc1c(C)[nH]c2ccc(C)cc12)C1=C(O)CC(c2ccccc2)CC1=O (stereo not given)	0.516
O=C(CSC1=NCCS1)N1CCOCC1	0.019
O=C(NNC(=O)c1ccccc1Br)c1ccc(Cl)cc1	0.075
CCN(CC)CCNC(=O)c1c(O)c2c([nH]c1=O)CCCC2	-1.33
S=C(NCc1cccnc1)Nc1cccc2ccccc12	-0.284
CCCNC(=O)C(NS(=O)(=O)c1ccc2c(c1)c(=O)n(C)c(=O)n2C)c1ccccc1 (stereo not given)	-0.661
CS(=O)(=O)n1nc(-c2ccccc2)nc1NCc1ccco1	-0.193
CCOc1ccc(NC(=O)Nc2cccs2)cc1	2.37
CCC1=Nc2cc(C(=O)NCCCOC)ccc2Sc2ccccc21	-0.248
COc1ccc(-c2[nH]c(-c3ccc(C)cc3)nc2SCC(=O)NCc2ccco2)cc1OC	0.0225
Cc1ccc(CNC(=O)C2CCCN(S(=O)(=O)c3c(C)noc3C)C2)cc1 (stereo not given)	-0.152
Cc1ccc2[nH]c(C)c(CCNC(=O)c3cc4cc([N+](=O)[O-])ccc4oc3=O)c2c1	-1.05
CCC(=O)Nc1c(C#N)c2nc3ccccc3nc2n1C1CCCCC1	-0.149
O=C(CCC(=O)c1ccccc1)Nc1cccnc1	-0.589
C=C(C(=O)c1ccccc1)C(CC(=O)c1ccccc1)c1ccccc1 (stereo not given)	-0.0913
Cc1ccccc1-c1nc(CS(=O)CC(=O)NCc2ccccc2)c(C)o1 (stereo not given)	0.0141
COc1ccc(-c2c(NC(=O)c3ccco3)n(C)c3ccccc3c2=O)cc1	-0.596

SMILES	z-score
Cc1cc(C(=O)Cn2ncc(Cl)c(Cl)c2=O)c(C)n1CC(F)(F)F	-0.573
Cc1ccc(S(=O)(=O)N(CC(=O)N/N=C/c2ccc(F)cc2)c2cccc3cccnc23)cc1	-0.303
CC(NC(=O)c1ccc(Cl)s1)C1CCCO1 (stereo not given)	0.0804
Cc1ccsc1/C=N/NC(=O)c1c[nH]c2ccccc12	0.29
CCN1CCN(C(=O)c2ccc3c(=O)n(CCC4=CCCCC4)c(=O)[nH]c3c2)CC1	-0.941
O=C(CSc1nnc(Cc2cccs2)n1-c1ccccc1)NC1CCCCC1	-0.101
CC(C)(C)SCCNC(=O)COc1ccc(Cl)cc1	-0.647
Cc1ccccc1C(=O)N=c1sccn1C	-0.187
COc1ccc2c(C)cc(SCc3c(C)noc3C)nc2c1	-0.0336
Cc1ccc(-c2nc(CS(=O)CC(=O)NCCC(C)C)c(C)o2)cc1 (stereo not given)	0.18
C=CCN1C(=O)C2(C(C#N)=C(N)Oc3n[nH]c(CCC)c32)c2ccccc21 (stereo not given)	0.176
Cc1ccc(NC2(c3nnnn3-c3c(C)cccc3C)CCCCC2)cc1	0.238
CN1CCN(S(=O)(=O)c2ccc(NC(=O)Cc3cccs3)cc2)CC1	-0.217
Cc1cc(C)n(-c2ccc(C(=O)OCC(=O)Nc3ccc(Cl)cc3[N+](=O)[O-])cc2)n1	-0.362
O=c1c2ccccc2oc2nc(C3CCCCC3)n(Cc3ccco3)c(=O)c12	-1.35
CCCCNC(=O)CCNS(=O)(=O)c1ccc(Br)cc1	-0.0937
Cc1cc(NC(=O)c2cn(C3CCCCC3)c(=O)c3c2c2ccccc2n3C)no1	0.0883
COc1ccccc1OCCOCCOc1ccc(C)cc1[N+](=O)[O-]	0.687
Cc1cccc(NC(=O)C2C3C=CC(C4CC34)C2C(=O)O)c1 (stereo not given)	0.262
NS(=O)(=O)c1ccc(NC(=S)NCc2ccc(Cl)cc2)cc1	0.225
O=C(OCc1cccs1)c1ccccc1NS(=O)(=O)c1ccc2c(c1)OCCO2	-0.267
COc1ccc(C2/C(=C(/O)c3ccccc3)C(=O)C(=O)N2CCO)cc1 (stereo not given)	-0.0153
